Measured values from patent publication US20090221532A1 (priority 2005, published 2009).

Tested on: Patients undergoing elective colonoscopy
Conditions: for Time after start of procedure until mean Modified OAA/S scores fell below 2: FIG. 3; for Time to Procedure Start, Mean / Time to Procedure Start, Median: from first administration to start of colonoscopy; for Time to Fully Alert, Mean / Time to Fully Alert, Median / Time to Fully Recovered, Mean / Time to Fully Recovered, Median / Time to Ready for Discharge, Mean / Time to Ready for Discharge, Median: from withdrawal of colonoscope
[1] = Example 1B initial portion, patients between 75 and 80 kg dosed with 980 mg (28 mL)
[2] = Example 1B, 630/700 mg, 805 mg and 980-mg dose groups
[3] = Example 1B, initial bolus dose 805 mg
[4] = Example 1B, initial bolus dose 910 mg
[5] = Example 1B, initial bolus dose 980 mg
[6] = Example 1B, initial bolus dose 630/700 mg

## CC(C)c1cccc(C(C)C)c1OCOP(=O)([O-])[O-].[Na+].[Na+] [propofol prodrug, O-phosphonooxymethyl propofol disodium salt]
[1]
  Adverse respiratory finding (oxygen saturation <90%): mild hypoxemia
  MOAA/S of more heavily sedated subjects: < 2
Example 1B, initial bolus dose of 805 mg
  Time after start of procedure until mean Modified OAA/S scores fell below 2: ≤ 6 min
Example 1B, initial bolus dose of 980
  Time after start of procedure until mean Modified OAA/S scores fell below 2: ≤ 4 min
Example 1B, FIG. 4B, 630/700 mg doses
  Percent of time patients remained within Modified OAA/S scores of 2, 3, or 4 from procedure start to procedure end: 87.5%
Example 1B, FIG. 4B, initial bolus dose 805 mg
  Percent of time spent at Modified OAA/S scores of 1 or 0: 31.0%
Example 1B, FIG. 4B, initial bolus dose 910 mg
  Percent of time spent at Modified OAA/S scores of 1 or 0: 22.3%
Example 1B, FIG. 4B, initial bolus dose 980 mg
  Percent of time spent at Modified OAA/S scores of 1 or 0: 31.5%
Example 1B, FIG. 4B, initial bolus dose 630/700 mg
  Percent of time spent at Modified OAA/S scores of 1 or 0: 12.5%
Example 1B, FIG. 4B, initial bolus doses of 805, 910, and 980 mg
  Percent of time patients remained within Modified OAA/S scores of 2, 3, or 4 from procedure start to procedure end, range: 61.9% to 67.3%
Example 1B, 805 mg and 980 mg groups
  Mean Modified OAA/S scores during colonoscopy: below 2
[2]
  Median time to fully alert, range over dose groups: 12.0 to 12.5 min
  Median time to fully recovered, range over dose groups: 18.0 to 20.0 min
  Median time to ready for discharge, range over dose groups: 35.0 to 37.0 min
Example 1B, 805-mg group
  Percent of patients who required one supplemental dose to start the procedure: 12.5%
Example 1B, 910-mg group
  Percent of patients who required one supplemental dose to start the procedure: 23.5%
Example 1B, All Patients
  Number of Patients administered a total of 1 dose (initial plus supplemental): 38
  Number of Patients administered a total of 2 doses (initial plus supplemental): 14
  Number of Patients administered a total of 3 doses (initial plus supplemental): 6
  Number of Patients administered a total of 4 doses (initial plus supplemental): 4
  Number of Patients requiring 1 dose to allow start of procedure: 56
  Number of Patients requiring 1 supplemental dose to maintain sedation throughout the procedure: 15
  Number of Patients requiring 2 doses to allow start of procedure: 6
  Number of Patients requiring 2 supplemental doses to maintain sedation throughout the procedure: 7
  Number of Patients requiring 3 doses to allow start of procedure: 0
  Number of Patients requiring 3 supplemental doses to maintain sedation throughout the procedure: 1
  Number of Patients requiring 4 doses to allow start of procedure: 0
  Number of Patients requiring 4 supplemental doses to maintain sedation throughout the procedure: 0
  Time to Achieve Sedation (first Modified OAA/S score ≦4), Mean: 2.7 min
  Time to Achieve Sedation (first Modified OAA/S score ≦4), Median: 2.0 min
  Total Dose (mg) required during the entire procedure, Mean: 982.8 mg
  Total Dose (mg) required during the entire procedure, Median: 980.0 mg
  Time to Procedure Start, Mean: 3.8 min
  Time to Procedure Start, Median: 3.0 min
  Time to Fully Alert, Mean: 12.5 min
  Time to Fully Alert, Median: 12.0 min
  Time to Fully Recovered, Mean: 22.1 min
  Time to Fully Recovered, Median: 20.0 min
  Time to Ready for Discharge, Mean: 40.3 min
  Time to Ready for Discharge, Median: 35.5 min
Example 1B, all patients
  Percent of patients for whom the initial bolus dose was sufficient to start the procedure: 90.3%
  Percent of patients who required 1 supplemental dose to maintain sedation: 24.2%
  Percent of patients who required 2 supplemental doses to maintain sedation: 11.3%
  Percent of patients who required at least 1 supplemental dose to maintain sedation: 37.1%
Example 1B, all patients (one in the 910-mg group)
  Percent of patients who required 3 supplemental doses to maintain sedation: 1.6%
[3]
  Number of Patients administered a total of 1 dose (initial plus supplemental): 8
  Number of Patients administered a total of 2 doses (initial plus supplemental): 4
  Number of Patients administered a total of 3 doses (initial plus supplemental): 3
  Number of Patients administered a total of 4 doses (initial plus supplemental): 1
  Number of Patients requiring 1 dose to allow start of procedure: 14
  Number of Patients requiring 1 supplemental dose to maintain sedation throughout the procedure: 5
  Number of Patients requiring 2 doses to allow start of procedure: 2
  Number of Patients requiring 2 supplemental doses to maintain sedation throughout the procedure: 3
  Number of Patients requiring 3 doses to allow start of procedure: 0
  Number of Patients requiring 3 supplemental doses to maintain sedation throughout the procedure: 0
  Number of Patients requiring 4 doses to allow start of procedure: 0
  Number of Patients requiring 4 supplemental doses to maintain sedation throughout the procedure: 0
  Time to Achieve Sedation (first Modified OAA/S score ≦4), Mean: 2.5 min
  Time to Achieve Sedation (first Modified OAA/S score ≦4), Median: 2.0 min
  Total Dose (mg) required during the entire procedure, Mean: 945.0 mg
  Total Dose (mg) required during the entire procedure, Median: 875.0 mg
  Time to Procedure Start, Mean: 3.6 min
  Time to Procedure Start, Median: 3.0 min
  Time to Fully Alert, Mean: 12.2 min
  Time to Fully Alert, Median: 12.5 min
  Time to Fully Recovered, Mean: 20.3 min
  Time to Fully Recovered, Median: 18.0 min
  Time to Ready for Discharge, Mean: 41.8 min
  Time to Ready for Discharge, Median: 35.0 min
[4]
  Number of Patients administered a total of 1 dose (initial plus supplemental): 8
  Number of Patients administered a total of 2 doses (initial plus supplemental): 3
  Number of Patients administered a total of 3 doses (initial plus supplemental): 3
  Number of Patients administered a total of 4 doses (initial plus supplemental): 3
  Number of Patients requiring 1 dose to allow start of procedure: 13
  Number of Patients requiring 1 supplemental dose to maintain sedation throughout the procedure: 3
  Number of Patients requiring 2 doses to allow start of procedure: 4
  Number of Patients requiring 2 supplemental doses to maintain sedation throughout the procedure: 4
  Number of Patients requiring 3 doses to allow start of procedure: 0
  Number of Patients requiring 3 supplemental doses to maintain sedation throughout the procedure: 1
  Number of Patients requiring 4 doses to allow start of procedure: 0
  Number of Patients requiring 4 supplemental doses to maintain sedation throughout the procedure: 0
  Time to Achieve Sedation (first Modified OAA/S score ≦4), Mean: 3.7 min
  Time to Achieve Sedation (first Modified OAA/S score ≦4), Median: 3.0 min
  Total Dose (mg) required during the entire procedure, Mean: 1093.2 mg
  Total Dose (mg) required during the entire procedure, Median: 1085.0 mg
  Time to Procedure Start, Mean: 5.2 min
  Time to Procedure Start, Median: 4.0 min
  Time to Fully Alert, Mean: 11.5 min
  Time to Fully Alert, Median: 11.0 min
  Time to Fully Recovered, Mean: 25.6 min
  Time to Fully Recovered, Median: 21.0 min
  Time to Ready for Discharge, Mean: 40.4 min
  Time to Ready for Discharge, Median: 33.0 min
[5]
  Number of Patients administered a total of 1 dose (initial plus supplemental): 15
  Number of Patients administered a total of 2 doses (initial plus supplemental): 6
  Number of Patients administered a total of 3 doses (initial plus supplemental): 0
  Number of Patients administered a total of 4 doses (initial plus supplemental): 0
  Number of Patients requiring 1 dose to allow start of procedure: 21
  Number of Patients requiring 1 supplemental dose to maintain sedation throughout the procedure: 6
  Number of Patients requiring 2 doses to allow start of procedure: 0
  Number of Patients requiring 2 supplemental doses to maintain sedation throughout the procedure: 0
  Number of Patients requiring 3 doses to allow start of procedure: 0
  Number of Patients requiring 3 supplemental doses to maintain sedation throughout the procedure: 0
  Number of Patients requiring 4 doses to allow start of procedure: 0
  Number of Patients requiring 4 supplemental doses to maintain sedation throughout the procedure: 0
  Time to Achieve Sedation (first Modified OAA/S score ≦4), Mean: 2.4 min
  Time to Achieve Sedation (first Modified OAA/S score ≦4), Median: 2.0 min
  Total Dose (mg) required during the entire procedure, Mean: 1030.0 mg
  Total Dose (mg) required during the entire procedure, Median: 980.0 mg
  Time to Procedure Start, Mean: 2.9 min
  Time to Procedure Start, Median: 3.0 min
  Time to Fully Alert, Mean: 13.7 min
  Time to Fully Alert, Median: 12.0 min
  Time to Fully Recovered, Mean: 21.5 min
  Time to Fully Recovered, Median: 20.0 min
  Time to Ready for Discharge, Mean: 39.5 min
  Time to Ready for Discharge, Median: 37.0 min
[6]
  Number of Patients administered a total of 1 dose (initial plus supplemental): 7
  Number of Patients administered a total of 2 doses (initial plus supplemental): 1
  Number of Patients administered a total of 3 doses (initial plus supplemental): 0
  Number of Patients administered a total of 4 doses (initial plus supplemental): 0
  Number of Patients requiring 1 dose to allow start of procedure: 8
  Number of Patients requiring 1 supplemental dose to maintain sedation throughout the procedure: 1
  Number of Patients requiring 2 doses to allow start of procedure: 0
  Number of Patients requiring 2 supplemental doses to maintain sedation throughout the procedure: 0
  Number of Patients requiring 3 doses to allow start of procedure: 0
  Number of Patients requiring 3 supplemental doses to maintain sedation throughout the procedure: 0
  Number of Patients requiring 4 doses to allow start of procedure: 0
  Number of Patients requiring 4 supplemental doses to maintain sedation throughout the procedure: 0
  Time to Achieve Sedation (first Modified OAA/S score ≦4), Mean: 1.8 min
  Time to Achieve Sedation (first Modified OAA/S score ≦4), Median: 2.0 min
  Total Dose (mg) required during the entire procedure, Mean: 700.0 mg
  Total Dose (mg) required during the entire procedure, Median: 700.0 mg
  Time to Procedure Start, Mean: 3.6 min
  Time to Procedure Start, Median: 3.5 min
  Time to Fully Alert, Mean: 12.5 min
  Time to Fully Alert, Median: 12.5 min
  Time to Fully Recovered, Mean: 20.0 min
  Time to Fully Recovered, Median: 19.0 min
  Time to Ready for Discharge, Mean: 39.4 min
  Time to Ready for Discharge, Median: 36.5 min
Example 1B, most patients
  Time within which most patients achieved sedation: 2 to 3 min
Example 1B, of the 62 patients
  Number of patients who required ≦2 doses to initiate and maintain sedation to complete the procedure: 52
  Percent of patients who required ≦2 doses to initiate and maintain sedation to complete the procedure: 83.9%
Example 1B, of the 64 treated patients
  Patients who received alternative (rescue) medication and were considered treatment failures: two

Like-named read-outs stand apart in the source and are kept apart here.
